PubChem BioAssay AID662 (National Center for Advancing Translational Sciences (NCATS), 2007)
Several values for one entry are separate records, joined by “and”; a condition that tells them apart may be missing. Equal entries are not always repeated. The campaign covered roughly 71,000 compounds. About 1,800 (2.5%) were called active. Inconclusive means that the source gave no clear call. Such entries were picked first, then a sample of the others. Calls follow the shape of the dose curve; as a rule, active = well fitted activation curve with a large enough effect in the signal ratio, with a control signal flat (not every such curve was filed as active); inconclusive = small, poorly fitted or top-dose-only effect, or effect the other way, or a change in a side signal; inactive = flat fitted curve, though single readings scatter; the % refers to the signal ratio. Potencies of inconclusive entries are doubtful fits and often do not repeat.
Potency is read from the fitted curve at half-maximal effect; tags tell the direction and shape of the fitted curve.

Experiment: Cell signaling CRE-BLA (Fsk stim); as to activity change, negative = inhibition: % of control where 0% means no effect
Details: CHO CRE-bla reporter (cAMP response element driving beta-lactamase), forskolin EC10, beta-lactamase ratio; activity change, negative = inhibition: at 38.2 µM (top of the series) unless noted
Summary of the method: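 CRE-bla CHO cells stimulated with EC10 NKH 477 (water-soluble forskolin) and compound titrations, 3 h at 37C; beta-lactamase read with CCF4 after 2 h at room temperature. Activity from 460/530 nm emission ratio, AC50 values for positive or negative modulation.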
In the case of O=C(CSc1nc2ccccc2[nH]1)N1CCCCC1, the activity change, negative = inhibition is reported as inconclusive: -12.1%.
In the case of COc1ccc(OC)c(C(=O)CSc2nnnn2C)c1, the “activity change, negative = inhibition” value is reported as inactive: 5.89%.
For COC(=O)C(C)Sc1nnc(SC(C)C(=O)OC)s1 (stereo unspecified), the Potency was inconclusive: 25.1 µM [rising, single point].
With CCOC(=O)N1CCN(C(=O)c2ccc3c(=O)n(CCc4ccccc4)c(=S)[nH]c3c2)CC1 the activity change, negative = inhibition was inconclusive: 12.3%.
In the case of O=C(C1CCCN(c2ncccn2)C1)N1CCc2ccccc21 (stereo unspecified), the activity change, negative = inhibition is reported as inconclusive: 13.5%.
For CCN(CC)C(=O)c1csc(Nc2ccc(C)cc2)n1, the activity change, negative = inhibition was inconclusive: 10.5%.
With COc1cc(NC(=O)COc2ccc(F)cc2)nc(OC)n1 the activity change, negative = inhibition was inconclusive: 27.7% [at 7.6 µM].
For COc1ncc2nc(-c3ccc(F)cc3)c(=O)n(CCC#N)c2n1, the activity change, negative = inhibition was inconclusive: 17.5%.
For Cc1nc2nc(SCC(=O)C(C)(C)C)[nH]c2cc1Br, the activity change, negative = inhibition was inconclusive: 22.1%.
In the case of CCOC(=O)C(C)Sc1nnc(-c2ccccc2O)n1-c1ccc(C)cc1 (stereo unspecified), the “activity change, negative = inhibition” value is reported as inactive: -0.558%.
With O=C1C(=O)N(CCCn2ccnc2)C(c2cccnc2)/C1=C(/O)c1ccc(Cl)cc1 (stereo unspecified) the activity change, negative = inhibition was inactive: -5.95% [at 7.6 µM].
For CCOc1ccc(CCNC(=O)c2oc3c(c2C)-c2[nH]ncc2CC3)cc1OCC, the Potency was active: 2.51 µM.
In the case of O=C(Nc1ccc2c(c1)nc1n2CCN(C2CCCCC2)C1)c1ccco1, the “activity change, negative = inhibition” value is reported as inactive: -15.1%.
In the case of COc1ccccc1N1CCN(c2ccc(-c3ccccc3)nn2)CC1, the activity change, negative = inhibition is reported as inconclusive: 20.7%.
With O=C(CN1c2cccc3cccc(c23)S1(=O)=O)NCc1ccc2c(c1)OCO2 the Potency was inconclusive: 0.398 µM [rising, single point].
For CC/C(=C(\c1ccccc1)c1ccc(OCCN(C)C)cc1)c1ccc(O)cc1, the activity change, negative = inhibition was inconclusive: -21%.
In the case of CN(C)C(=O)CN(c1ccc(F)c(Cl)c1)S(C)(=O)=O, the “activity change, negative = inhibition” value is reported as inactive: 9.43%.
For CCOC(=O)C(NC(=O)c1ccc(OC)cc1)(OCC1(CC)COC1)C(F)(F)F (stereo unspecified), the activity change, negative = inhibition was inconclusive: -5.46%.
For O=c1cnc2cnc(Nc3ccccc3)nc2n1CCc1ccccc1, the “activity change, negative = inhibition” value was inactive: -3.81%.
With CCC(=O)N/C(=N/c1nc(C)cc(C)n1)Nc1cccc(OC)c1 the Potency was inconclusive: 20 µM [rising, single point].
With CN1CCN(S(=O)(=O)c2ccc(NC(=O)c3ccc(Br)s3)cc2)CC1 the Potency was inconclusive: 12.6 µM [rising, single point].
In the case of CCN(CC(=O)Nc1ccccc1C(=O)OC)S(=O)(=O)c1ccccc1, the activity change, negative = inhibition is reported as inconclusive: 5.31%.
For O=c1oc(-c2cccc(S(=O)(=O)N3CCOCC3)c2)nc2ccccc12, the activity change, negative = inhibition was inconclusive: 43%.
For COC(=O)c1ccccc1NC(=O)N1c2ccccc2CC1C (stereo unspecified), the Potency was inconclusive: 10 µM [rising, single point].
In the case of C=CCn1c(SCc2c(C)noc2C)nc2cc(C(=O)O)ccc2c1=O, the Potency is reported as inconclusive: 10 µM [rising, partial curve].
With COc1cc(CNC(=O)CCCC/C=C\C(C)C)ccc1O the Potency was inconclusive: 15.8 µM [falling, partial curve, poor fit] and the activity change, negative = inhibition was inconclusive: -28.8% and inconclusive: -11.7%.
For CCOC(=O)c1cc2c(=O)n3ccccc3nc2n(Cc2ccc(Cl)cc2)c1=N, the Potency was inconclusive: 12.6 µM [rising, partial curve].
For CN(Cc1ccco1)c1ncncc1-c1cccnc1, the “activity change, negative = inhibition” value was inactive: 2.94%.
In the case of c1csc(CCNc2ncnc3sc4c(c23)CCC4)c1, the “activity change, negative = inhibition” value is reported as inactive: -11.2%.
In the case of CNCCC=C1c2ccccc2CCc2ccccc21, the activity change, negative = inhibition is reported as inconclusive: -20.7% [at 17.1 µM].
With NC(=O)CN1C(=O)C(O)(CC(=O)c2ccccc2O)c2ccccc21 (stereo unspecified) the “activity change, negative = inhibition” value was inactive: -6.11%.
In the case of CCNc1nc(N)nc(Oc2ccc(OCCOc3ccc(Cl)cc3Cl)nn2)n1, the Potency is reported as active: 6.31 µM.
With N#CNC(N)=Nc1ccc(Cl)cc1 the activity change, negative = inhibition was inactive: -1.34% [at 7.6 µM].
With O=C(CSC1=Nc2ccccc2C2=NC(CC(=O)NCc3ccco3)C(=O)N12)NCC1CCCO1 (stereo unspecified) the activity change, negative = inhibition was inconclusive: -16.8%.
With O=C(O)CCN1C(=O)C(=C2CCCCCC2)SC1=S the activity change, negative = inhibition was inconclusive: -23.4%.
For CSC1=C(C#N)C(c2cccc(Br)c2)CC(=O)N1 (stereo unspecified), the activity change, negative = inhibition was inconclusive: -14.9%.
With Cc1ccc(Sc2oc(/C=N/n3cnnc3)cc2Br)cc1 the Potency was inconclusive: 3.98 µM [rising, single point].
For Cc1cc(NC(=O)CCC(=O)N(c2cccnc2)C(C(=O)NC2CCCC2)c2ccccc2F)no1 (stereo unspecified), the “activity change, negative = inhibition” value was inactive: -4.47%.
In the case of Cc1nc2ccccc2n1CC(O)Cn1c(C(F)(F)F)nc2ccccc21 (stereo unspecified), the “activity change, negative = inhibition” value is reported as inactive: -2.54%.
For O=C(Nc1cccc2nsnc12)c1cccs1, the Potency was inconclusive: 12.6 µM [rising, partial curve].
In the case of O=C(O)CC(C(=O)O)c1cn(Cc2ccccc2)c2ccccc12 (stereo unspecified), the activity change, negative = inhibition is reported as inconclusive: -9.83%.
In the case of Cc1cc(C(=O)Nc2sc(C)c(C)c2C#N)c(C)o1, the “activity change, negative = inhibition” value is reported as inactive: -13.9%.
In the case of Cc1onc(-c2ccccc2Cl)c1C(=O)Nc1cccc2nsnc12, the Potency is reported as inconclusive: 15.8 µM [rising, single point].
With Cc1ccccc1-n1nc(C)c2cc(C(=O)N3CCN(S(=O)(=O)c4ccccc4)CC3)sc21 the activity change, negative = inhibition was inconclusive: 19.2% [cytotoxic].
For O=S(=O)(c1ccccc1)N1CCC2(CCN(Cc3ccncc3)CC2)CC1, the “activity change, negative = inhibition” value was inactive: 12.7%.
With COc1cc(-c2nnc3sc(-c4ccncc4)nn23)cc(OC)c1OC the Potency was active: 2 µM.
In the case of O=C(CC1Nc2ccccc2NC1=O)NCC1COc2ccccc2O1 (stereo unspecified), the activity change, negative = inhibition is reported as inconclusive: 25.1%.
For Cc1csc(NC(=O)CCCSc2nc3ccccc3s2)n1, the Potency was inconclusive: 3.16 µM [falling, single point].
For Cc1ccccc1CS(=O)(=O)c1nnc([C@H](CC(C)C)NC(=O)OC(C)(C)C)o1, the activity change, negative = inhibition was inconclusive: 5.9% [cytotoxic].
For CC(C)OC(=O)CSc1nc(N)c(C#N)c(-c2cccs2)c1C#N, the Potency was inconclusive: 12.6 µM [rising, partial curve].
For CC1(C)O[C@H]2[C@@H](O1)[C@@H](On1nnc3ccc(Cl)cc31)O[C@@H]2[C@@H]1COC(C)(C)O1, the activity change, negative = inhibition was inactive: 8.6% [at 7.6 µM].
In the case of N=c1c(S(=O)(=O)c2ccccc2)cc2c(=O)n3ccccc3nc2n1CCN1CCOCC1, the activity change, negative = inhibition is reported as inconclusive: 25.3%.
With COc1ccccc1CCn1c(=O)c(-c2ccccc2)nc2cncnc21 the Potency was inconclusive: 15.8 µM [rising, partial curve].
With COc1ccc(C2CC(=O)C3=C(C2)NC(C)=C(C#N)C3c2ccc(N(C)C)cc2)cc1 (stereo unspecified) the “activity change, negative = inhibition” value was inactive: -2.74%.
For O=C(NCCc1ccc(Cl)cc1)C1CCN(S(=O)(=O)c2cccc3nonc23)CC1, the activity change, negative = inhibition was inconclusive: 1.15%.
For COc1ccc(C(=O)Nc2ccc(-c3ccc(C)o3)cc2)cc1S(=O)(=O)N1CCOCC1, the activity change, negative = inhibition was inconclusive: 4.48%.
In the case of Cc1nn(-c2ccccc2)c(N2CCCC2)c1/C=N/n1cnc2scc(-c3ccccc3)c2c1=O, the “activity change, negative = inhibition” value is reported as inactive: -14.3%.
For C=CCc1cccc2cc(C(=O)NC)c(=O)oc12, the activity change, negative = inhibition was inconclusive: 26.5%.
With COc1cc(OC)c(C2C(C#N)=C(N)Oc3cc(C)n(CCCN4CCOCC4)c(=O)c32)cc1OC (stereo unspecified) the “activity change, negative = inhibition” value was inactive: -12.4%.
For CSc1nc(C)cc(Nc2ccc(O)c(CN3CCOCC3)c2)n1, the activity change, negative = inhibition was inactive: 4.31% [at 7.6 µM].
In the case of O=c1nc(C(F)(F)F)nc2ccccn12, the Potency is reported as inconclusive: 25.1 µM [rising, single point].
With Cc1nn(-c2ccccc2)c(C)c1C(=O)OCC(=O)c1c(N)n(CC(C)C)c(=O)n(C)c1=O the “activity change, negative = inhibition” value was inactive: -10.5%.
For CCn1cnc2sc(C(=O)N(Cc3ccc(N(C)C)cc3)Cc3ccco3)c(C)c2c1=O, the Potency was active: 12.6 µM.
In the case of Cc1ccc(-n2nnnc2SCC(=O)NC(=O)Nc2ccc3c(c2)OCCO3)cc1, the activity change, negative = inhibition is reported as inconclusive: 17.3%.
For COc1cc(NS(C)(=O)=O)c(OC)cc1NC(=O)c1ccccc1, the “activity change, negative = inhibition” value was inactive: 13.3%.
For O=C(COC(=O)c1ccc(S(=O)(=O)N2CCCC2)cc1)NCc1ccccc1, the activity change, negative = inhibition was inconclusive: -5.8%.
With COc1ccc(CCNC(=O)c2cc(-c3cccs3)on2)cc1OC the Potency was inconclusive: 10 µM [rising, partial curve].
In the case of C=CCn1c(SCc2ccc(Cl)cc2)nc2c1c(=O)[nH]c(=O)n2C, the Potency is reported as active: 10 µM.
For COc1ccc(S(=O)(=O)NC(CC(=O)NCc2ccc3c(c2)OCO3)c2ccco2)cc1 (stereo unspecified), the “activity change, negative = inhibition” value was inactive: -13.3%.
With COc1ccc(-c2noc(Cc3ccc(Cl)cc3)n2)cc1OC the Potency was inconclusive: 10 µM [rising, partial curve].
In the case of CCOc1cc(C(=O)Nc2ncccn2)cc(OCC)c1OCC, the activity change, negative = inhibition is reported as inconclusive: 33.4%.
In the case of CN(C)C(=O)c1ccc(-c2ccc3ncnc(NCc4ccccc4)c3c2)cc1, the activity change, negative = inhibition is reported as inconclusive: 26.7%.
In the case of Cc1cc(C(C)(C)C)cc(S(=O)(=O)NCC(=O)O)c1C, the activity change, negative = inhibition is reported as inconclusive: 21.9%.
With CN[C@]1(C)[C@@H]2CC[C@@H](C2)C1(C)C the “activity change, negative = inhibition” value was inactive: 2.16%.
In the case of COC(=O)c1ccc(CSc2ncnc3ccccc23)o1, the “activity change, negative = inhibition” value is reported as inactive: -0.375%.
For CCOC(=O)c1ccccc1NC(=O)Cn1cnc2c(oc3ccccc32)c1=O, the activity change, negative = inhibition was inconclusive: 13.1%.
For Cc1ccc(C(=O)Nc2ccc(S(=O)(=O)O)c3cc(S(=O)(=O)O)cc(S(=O)(=O)O)c23)cc1NC(=O)c1cccc(NC(=O)Nc2cccc(C(=O)Nc3cc(C(=O)Nc4ccc(S(=O)(=O)O)c5cc(S(=O)(=O)O)cc(S(=O)(=O)O)c45)ccc3C)c2)c1, the Potency was “inactive”.
With CC12CCC(=O)N1C(C(=O)OCC(=O)Nc1sccc1C#N)CS2 (stereo unspecified) the Potency was inconclusive: 3.98 µM [falling, single point].
With CCOC(=O)c1[nH]c2cc(OC)c(OC)cc2c1NC(=O)CN(C)C1CCCCC1 the Potency was inconclusive: 7.94 µM [rising, partial curve].
In the case of O=C(CN1C(=O)NC2(CCc3ccccc32)C1=O)Nc1cc(C(F)(F)F)ccc1N1CCOCC1 (stereo unspecified), the “activity change, negative = inhibition” value is reported as inactive: -3.57%.
